Here are results for 83 compounds from ChEMBL document CHEMBL4888484, “Replenishing the malaria drug discovery pipeline: Screening and hit evaluation of the MMV Hit Generation Library 1 (HGL1) against asexual blood stage Plasmodium falciparum ,using a nano luciferase reporter read-out” (2022).

About 540 (0.36%) of roughly 150,000 compounds showed an effect of 50% or more. This is one part of the list.

For the test, the system named is Plasmodium falciparum. Description: Primary screen in NF54 nanoGlo assay, in single point, at 2uM, 72h; a lower Z score goes with more inhibition. In kind it is functional, Erythrocyte. The following applies: timepoint 72 hour.
In the case of `O=C1[C@@H]2CN(C3CCCC3)CCN2C(=O)N1c1ccccc1`, the “% Inhibition” value is recorded as -15% and the Z score is 1.23.
On the same counts, the results for `CN(C)c1ccc(CNC(=O)C2CCN(c3cncnc3N3CCOCC3)CC2)cc1` are -3% and 0.64.
Turning to `C[C@@H]1CN(C(=O)c2cccc(OC3CCN(S(=O)(=O)N(C)C)CC3)c2)C[C@H](C)O1`, the “% Inhibition” value was -5% and the Z score is reported as 0.87.
The corresponding values for `CCCc1c(C(=O)N(C)CCn2cnnc2)cnn1C1CCCC1` are -3% and 0.49.
The corresponding values for `Cc1ccc(-c2ncc(CN3CCCC4(C3)OCCO4)s2)o1` are -5% and 0.88.
Turning to `CN1C(=O)C2(CCN(C(=O)c3ccc(O)cn3)CC2)c2ccccc21`, the “% Inhibition” value is -4% and the Z score was 0.65.
Take `C[C@@H](Cn1cccn1)OC(=O)c1ccc2nncn2c1`: the “% Inhibition” value is 2% and the Z score is given as -0.44.
Turning to `O=C(Cc1ccsc1)Nc1cccc(S(=O)(=O)N2CCCC2)c1`, the “% Inhibition” value is given as -32% and the Z score was 3.77.
For the compound `CCc1c(C)cc(C(=O)N2CC[C@](C)(O)[C@H](CC)C2)c(=O)n1C`, the “% Inhibition” value is on record as -5% and the Z score was found to be 0.73.
The corresponding values for `CC(c1nnnn1C1CC1)N1CC2(CCC2)C1C1CCCO1` (stereo unspecified) are 12% and -1.56.
As to `COCC1(N(C)C(=O)c2cccc(-c3cc(C)nc(C)c3)c2)CC1`, the “% Inhibition” value is listed as -7% and the Z score was 1.26.
For `CC1(c2ccccc2)CC(NC(=O)N2CCN(CCO)C(C)(C)C2)C1` (stereo unspecified), the “% Inhibition” value was -1% and the Z score was determined as 0.11.
On the same counts, the results for `CC(C)(O)CN1CCN(C(=O)CCOc2ccccc2Cl)CC1` are 4% and -0.57.
Regarding `O=C(Nc1ccncc1F)NC1CCCC2OCCC12` (stereo unspecified), the “% Inhibition” value is -13% and the Z score came to 1.81.
On the same counts, the results for `CCC1=C(C(=O)NCc2ccnc(OC3CCC3)c2)CCCO1` are -6% and 0.57.
In the case of `COc1cc(Cl)cc(CN2C[C@H]3CC[C@@H](C2)[C@@H]3N)c1OC(C)C`, the “% Inhibition” value is reported as -10% and the Z score stood at 1.33.
The corresponding values for `Cc1nnc(CNC(=O)C2(c3cccc(Cl)c3)CC(C)C2)s1` (stereo unspecified) are -3% and 0.48.
In the case of `CC(C)CC(=O)N1CCC2(CC1)OC[C@@H](C(=O)N1CCOCC1)N2C(=O)c1ccc(F)cc1`, the “% Inhibition” value is on record as -10% and the Z score was found to be 1.32.
On the same counts, the results for `CC(C)(C)n1ncn(C2CCCC2)c1=O` are -11% and 1.1.
For the compound `FCC[C@H]1CN(c2ncnc(-c3ccccc3)n2)CCO1`, the “% Inhibition” value is -5% and the Z score is 0.57.
Take `O=C1CC[C@@]2(CCCO2)CCN1Cc1cncn1C1CC1`: the “% Inhibition” value is given as -13% and the Z score amounted to 1.81.
The corresponding values for `C[C@H](NCc1cnns1)c1nc(C2CCCCC2)no1` are 4% and -0.49.
For `C[C@H](N1CCN(Cc2ncccc2C(F)(F)F)CC1)C(F)(F)F`, the “% Inhibition” value is reported as -6% and the Z score stood at 0.52.
The corresponding values for `CC(C)c1nn(C)c2sc(C(=O)Nc3cc(C(=O)O)cs3)cc12` are -6% and 0.63.
As for `CC(CCc1ccccc1)NC1CS(=O)(=O)CC1O` (stereo unspecified), the “% Inhibition” value is -6% and the Z score is given as 0.84.
The corresponding values for `CN(Cc1cscn1)[C@H]1CCCC[C@H]1C(F)(F)F` are -8% and 1.34.
The corresponding values for `CCOC(=O)c1ccc(N2CCN(Cc3ccccc3)CC2)c(NC(=O)COc2ccc(Cl)cc2Cl)c1` are -11% and 1.63.
On to `CCC1CN(C(=O)C2CCOC2)C(CC)CN1Cc1ccccc1` (stereo unspecified), for which the “% Inhibition” value is listed as -9% and the Z score is 0.96.
The corresponding values for `CC[C@H](C)N(CC(=O)N1CCCN(c2ccc(-c3cccc(OC)c3)nn2)CC1)C(=O)COC` are -14% and 1.25.
Consider `CCS(=O)(=O)CCNC(=O)c1ccccc1-c1nc[nH]n1`, for which the “% Inhibition” value is given as -5% and the Z score is on record as 0.56.
With `C[C@@]12CO[C@@H](CNC(=O)C3CCCC3)O[C@@H]1CC[C@]1(C)[C@@H]2CC[C@@H](O)[C@H]1CC(=O)N1CCCC1`, the “% Inhibition” value is -5% and the Z score was 0.63.
On to `FC(F)(F)c1c2cnccc2nn1Cc1ccn(-c2ccccc2)n1`, for which the “% Inhibition” value was -42% and the Z score is 4.94.
With `CN1CCC(C(=O)N[C@H]2C[C@H](c3cccc(C(F)(F)F)c3)C2)CC1`, the “% Inhibition” value is on record as 0% and the Z score is -0.02.
`CCN1C(=O)[C@]2(Nc3ccccc3C(=O)N2CCN2CCOCC2)c2ccccc21`: the “% Inhibition” value is on record as -10% and the Z score came out at 1.37.
On the same counts, the results for `NC(=O)c1ccc(S(=O)(=O)Oc2ccc(-c3ccccc3)cc2Cl)cc1` are 2% and -0.24.
On the same counts, the results for `Cc1ccc(CN(C(=O)c2ccccc2C)c2cccc(CC(=O)NCc3cccnc3)c2)cc1` are 2% and -0.3.
The corresponding values for `O=C(Cc1ccon1)c1ccc(O)cc1O` are -5% and 0.89.
Consider `CC(C)(C)C(=O)NC1CCCCCCC1`, for which the “% Inhibition” value is -11% and the Z score is on record as 1.6.
On the same counts, the results for `c1ccc(-c2nc3c(c(NCCCc4nnn[nH]4)n2)CCNCC3)cc1` are -9% and 1.73.
As to `O=C1N(C2CCOCC2)C[C@H]2CN(Cc3ccc(C(F)(F)F)cc3)CCN12`, the “% Inhibition” value was -1% and the Z score was determined as 0.19.
The corresponding values for `O=C1NCCCCCN(C(=O)NCc2ccc(F)cc2)[C@H]2CCCC[C@@H]12` are -12% and 1.58.
On the same counts, the results for `CNC(=O)N1CCC[C@H]1c1nc(CCOCC2CCCC2)no1` are -13% and 1.71.
On the same counts, the results for `Cc1nc(-c2cc(NC(=O)c3ccccc3)c(C)s2)no1` are -11% and 0.93.
Consider `Cc1ccc(NC(=O)c2ccccc2O[C@@H](C)C(=O)c2ccc(C)cc2)cc1`, for which the “% Inhibition” value is on record as -18% and the Z score is listed as 2.62.
The corresponding values for `Cc1cccc(N2CCN(CCCNC(=O)C3CCN(c4nc5ccc(C)cc5[nH]4)CC3)C[C@@H]2C)c1` are 0% and 0.09.
The corresponding values for `COc1ccccc1CN1CCC2(CC1)c1ccccc1[C@@H](NC(=O)c1ccsc1)[C@@H]2OC` are -12% and 1.49.
For `CCOc1ccncc1S(=O)(=O)N1CCCC[C@@H]1CNC(=O)Nc1ccccc1`, the “% Inhibition” value is recorded as -32% and the Z score is 3.77.
Consider `Cc1cccc(-n2cc(-c3ccccc3)nc2NC(=O)CN(C(=O)c2ccco2)C2CC2)c1`, for which the “% Inhibition” value is listed as -6% and the Z score was found to be 0.93.
On the same counts, the results for `CC(C)c1csc(CCNC(=O)c2c[nH]c(=O)[nH]2)n1` are 7% and -1.01.
As to `Cc1nc2cccnc2n1-c1cc(C(=O)NCCc2ccccc2)ccc1Cl`, the “% Inhibition” value was determined as 38% and the Z score was -5.43.
The corresponding values for `Cc1ccccc1S(=O)(=O)N1CCN(CC2CC2)[C@@H]2CS(=O)(=O)C[C@@H]21` are -8% and 1.22.
The corresponding values for `CCN1C(=O)NC(=O)C12CCN(Cc1cnc(-c3cccs3)nc1)CC2` are 5% and -1.02.
The corresponding values for `Cc1ccc(NS(=O)(=O)CC2CCC2)c(Cl)c1` are -7% and 1.02.
`COC[C@@H]1CCC[C@@H]1Nc1cc(C)nc2ccnn12`: the “% Inhibition” value is listed as -3% and the Z score turned out to be 0.49.
For `CCOC1CC(CCNC(=O)NC2CC(C)C2)C1` (stereo unspecified), the “% Inhibition” value was -12% and the Z score came to 1.5.
The corresponding values for `Cc1c(C(=O)N2CCC[C@H]2c2ccc3c(c2)OCCO3)cnn1C` are -2% and 0.35.
On the same counts, the results for `Cc1ccc2c(c1)cc(CN(C)Cc1ccon1)c(=O)n2C` are 1% and -0.11.
As to `COC(=O)C1CCN(CC2CCC(F)(F)CC2)CC1`, the “% Inhibition” value was -8% and the Z score is given as 1.19.
On the same counts, the results for `Cc1ccc2cc(CN(CCCN3CCCC3=O)C(=O)c3ccco3)c(N3CCC[C@H](O)C3)nc2c1` are -17% and 2.02.
The corresponding values for `COc1ccccc1C1N=C(c2ccc3c(c2)OCO3)CC(c2ccccc2O)N1` (stereo unspecified) are 15% and -1.8.
For `C[C@]12C[C@H](c3ccccc3O1)C(C(=O)N1CCCCC1)C(=O)N2` (stereo partly specified), the “% Inhibition” value is 2% and the Z score was -0.33.
For the compound `COc1ccc(C)cc1C(=O)N1CCOC[C@@H](CN(C)C)C1`, the “% Inhibition” value is given as 0% and the Z score is recorded as -0.01.
The corresponding values for `O=C(C1CCN(c2ccc(F)cc2)C1=O)N1CCC(n2cccn2)C1` (stereo unspecified) are -10% and 1.86.
The corresponding values for `Cc1ccc(C(=O)[C@@H]2CC(=O)Nc3[nH]nc(C)c32)cc1C` are -13% and 1.72.
As for `Cc1c([C@H](C)NC(=O)N(C)C2CCC(c3ccccc3)CC2)cnn1C` (stereo partly specified), the “% Inhibition” value is recorded as -13% and the Z score came out at 1.16.
Turning to `Cc1nc2c(s1)[C@@H](N(C)Cc1occc1C(=O)O)CCC2`, the “% Inhibition” value was -7% and the Z score was 1.2.
With `O=S1(=O)CCC(O)(CN2CCc3cc(Cl)ccc32)CC1`, the “% Inhibition” value is on record as -8% and the Z score is 0.85.
The corresponding values for `Cc1csc(CNC[C@H]2COC3(CCC(C)CC3)O2)n1` (stereo partly specified) are -14% and 2.
The corresponding values for `Cc1cc(C(=O)N2CC[C@H](Cc3noc(-c4ccccc4)n3)C2)nn1C` are -17% and 3.26.
For `COc1cc(C)ccc1OCc1nc(C(=O)N[C@H]2CCOC(C)(C)C2)co1`, the “% Inhibition” value was -3% and the Z score worked out at 0.49.
On the same counts, the results for `Nc1nsc(N2CCN(S(=O)(=O)Cc3cccc(F)c3)CC2)n1` are -22% and 2.87.
The corresponding values for `O=C(NCCc1ccccc1)c1nn(CCOc2ccccc2)c2c1CNCC2` are 1% and -0.2.
With `CC(CCc1ccccc1)NC(=O)C1COCC(=O)N1Cc1cccs1` (stereo unspecified), the “% Inhibition” value is listed as -6% and the Z score is recorded as 1.18.
On the same counts, the results for `CC(=O)N1CCC[C@H]1C(=O)NCc1ccc(N2CCCCC2)nc1` are -7% and 1.12.
As to `O=C(NCCN1CCCC1)c1ccc(-c2c(-c3ccc(F)cc3)ncn2C2CCCC2)o1`, the “% Inhibition” value came out at 5% and the Z score is reported as -0.8.
As for `CCC(=O)N(Cc1cc(-c2ccc(OC)cc2OC)on1)CC(C)C`, the “% Inhibition” value was -5% and the Z score turned out to be 0.58.
On the same counts, the results for `O=C(c1ccco1)N1CCN(C(=O)C2CN(c3cc(-n4cccn4)ncn3)C2)CC1` are 14% and -1.85.
Consider `NC(=O)c1ccc(S(=O)(=O)N[C@@H]2C[C@H]3OCC[C@@H]23)cc1`, for which the “% Inhibition” value was 4% and the Z score is -0.5.
As for `Cc1nc(C)c(C(=O)NCC2CCOC2C(C)C)o1` (stereo unspecified), the “% Inhibition” value is listed as 1% and the Z score is given as -0.2.
On the same counts, the results for `Cc1cccnc1CCNC(=O)N1CC(O)(c2cccc(Br)c2)C1` are -3% and 0.39.
Take `CCOC(=O)C1CCN(CN2C(=O)NC3(CCCCCCC3)C2=O)CC1`: the “% Inhibition” value was -5% and the Z score came out at 0.62.
The corresponding values for `COc1cc(OC)cc(-c2onc(C)c2C(=O)NCc2ccco2)c1` are -9% and 0.87.
For the compound `Cn1cnn(Cc2ccccc2C(C)(C)C#N)c1=O`, the “% Inhibition” value is listed as -9% and the Z score amounted to 0.76.

By % Inhibition is commonly meant the drop in the measured response relative to a control, in per cent.
